PubChem BioAssay AID686979 (National Center for Advancing Translational Sciences (NCATS), 2013)
In all, about 420,000 compounds went through this assay and about 50,000 (12%) were called active. Inconclusive results, whose numbers are uncertain, are shown with a selection of clear calls. Calls follow the shape of the dose curve; as a rule, active = well fitted inhibition curve with a large enough effect; inconclusive = small, poorly fitted or top-dose-only effect; inactive = flat fitted curve, though single readings scatter. No potency is given beside an inconclusive call; the fits are too rough.

Assay: qHTS for Inhibitors of human tyrosyl-DNA phosphodiesterase 1 (TDP1): qHTS in cells in presence of CPT; also: nearly all actives have a fitted effect of over 55% in size
Details: chicken DT40 Tdp1-/-;hTDP1 cells + 20 nM CPT, ATP luminescence, 48 h; activity change, negative = growth inhibition: at 46.2 µM (top of the series) unless noted
Summary of the method: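 Chicken DT40 Tdp1-/- cells complemented with human TDP1, 400 cells/well, exposed to compounds plus 20 nM camptothecin for at least 48 h at 37 C; viability read as ATP content by CellTiter-Glo luminescence.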
% is scaled to controls: 0 for no effect and ±100 for the full control effect; potency is read from the fitted curve at half-maximal effect; tags tell the direction and shape of the fitted curve.

Row | SMILES | Potency | activity change, negative = growth inhibition
1 | COc1cc2cc(C(c3nnnn3C3CCCC3)N3CCCCC3)c(=O)[nH]c2cc1OC (stereo not drawn) | inactive | 
2 | Cc1c(O)cc2c(c1C)O[C@](C)(CCC[C@H](C)CCC[C@H](C)CCCC(C)C)CC2 | inactive | 
3 | O=C(NC1CCCCCC1)C1CC(=O)N(c2ccc(Cl)cc2)C1 (stereo not drawn) | inactive | 
4 | CC(=O)N(C)c1ccc(NC(=O)Nc2ccc(C)c(C)c2)cc1 | inconclusive [inhibitor, single point] | 
5 | CCN1CCc2c(sc(NC(=O)C3COc4ccccc4O3)c2C(N)=O)C1 (stereo not drawn) | inconclusive [inhibitor, single point] | 
6 | CCOc1ccc(NC(=O)CN(C)C(=O)c2ccc(=O)[nH]c2)cc1OCC | inactive | 
7 | O=C(Nc1ccccc1Cl)OCc1cncs1 | inactive | 
8 | CCS(=O)(=O)N1Cc2cc(C(=O)NCC3CC3)nc(-c3cccc(-c4cccnc4)c3)c2[C@@H]1CCO | inconclusive [inhibitor, single point] | 
9 | COc1ccc(C(=O)/C=C/c2ccccc2F)c(OC(=O)c2ccc([N+](=O)[O-])cc2)c1 | active: 23.1 µM | 
10 | Cn1nnnc1SCCNCc1cc(Cl)ccc1OCc1ccccc1 | active: 25.9 µM | 
11 | CCOc1ccc2nc(S(N)(=O)=O)sc2c1 | inconclusive [inhibitor, single point] | 
12 | CN(C)c1nnnn1-c1ccc(Oc2ccccc2)cc1 | inconclusive [inhibitor, partial curve] | 
13 | CCCc1c(-c2cccc(Cl)c2)ncn1Cc1ccccc1OC | active: 5.8 µM | 
14 | CCOc1ccccc1N1CCN(C(=O)c2ccc(S(=O)(=O)Nc3ccccc3)cc2)CC1 | active: 18.4 µM | 
15 | Cc1ccc(-n2c(SCC(=O)Nc3ccc4c(c3)OCO4)nnc2-c2cccs2)cc1 | inactive | 
16 | CN1c2ccccc2Oc2nnc(Cl)cc21 | inactive | 
17 | O=C(NCc1ccc(F)cc1)c1c2c(nc3ccccc13)C(=O)N(C1CCCCC1)C2 | inconclusive [inhibitor, single point] | 
18 | CCOC(=O)c1sc2nc(CC(=O)OC)nc(NCc3ccco3)c2c1C | inconclusive [inhibitor, single point] | 
19 | CCOC(=O)c1c(C(C)(C)C)oc2ccc(OCC#N)cc12 | inconclusive [inhibitor, single point] | 
20 | CCSc1nsc(NC(=O)Nc2cccc(C(C)=O)c2)n1 | inconclusive [inhibitor, single point] | 
21 | COc1ccc(Nc2c3c(nc4ccccc24)CCCC3)cc1OC | inconclusive [inhibitor, partial curve, poor fit] | 
22 | Cn1c(=O)c2c(nc(Sc3ncnn3CC(=O)NC3CCCCC3)n2C)n(C)c1=O | inactive | 
23 | O=C(CSc1nnc(-c2ccccn2)o1)Nc1ccccc1 | inactive | 
24 | Cc1n[nH]c(C)c1CCNC(=O)C1CCC(=O)N(CCc2cccc(F)c2)C1 (stereo not drawn) | inconclusive [inhibitor, single point] | 

Row | SMILES | Potency | activity change, negative = growth inhibition
25 | O=c1[nH]c2cc3c(cc2cc1C(c1nnnn1Cc1ccccc1)N1CCN2CCCC2C1)OCCO3 (stereo not drawn) | inconclusive [inhibitor, single point] | 
26 | Cc1cccc(CCNC(=O)C2CCC(CNS(=O)(=O)c3c(C)cc(C)cc3C)CC2)c1 (stereo not drawn) | inconclusive [inhibitor, single point] | 
27 | Cn1cc(C(=O)c2ccc(Cl)cc2Cl)cc1C(=O)N/N=C(\N)COc1ccccc1 | inconclusive [inhibitor, partial curve] | 
28 | O=C(Cc1ccc(NC(=O)N2CCCCc3ccccc32)cc1)NCc1ccccc1Br | inconclusive [inhibitor, single point] | 
29 | CN1CCN(c2ncc3nc(-c4cccc(C#N)c4)c(=O)n(C[C@H]4CCCO4)c3n2)CC1 | inconclusive [inhibitor, single point] | 
30 | Cc1ccc(C(=O)c2cc([N+](=O)[O-])ccc2N2CCCCC2)cc1C | active: 3.26 µM | 
31 | Cc1cccc(NS(=O)(=O)c2ccc3[nH]c(=O)[nH]c3c2)c1C | inactive | 
32 | Nc1ccc(N)c(C(=O)O)c1 | inconclusive [inhibitor, single point] | 
33 | CN(C)C1CCCCC=CC(=O)NC1 (stereo not drawn) | inactive | 
34 | CCOc1ccccc1C(=O)NC(C)c1ccc(-n2ccnc2)cc1 (stereo not drawn) | inconclusive [inhibitor, single point] | 
35 | COc1ccccc1C(O)(c1ccccc1)C(CN1CCOCC1)c1ccccc1 (stereo not drawn) | inconclusive [inhibitor, single point] | 
36 | COc1ccc(C(=O)NC(=S)N2CCCCC2)cc1 | inconclusive [inhibitor, single point] | 
37 | Cc1cc([N+](=O)[O-])nn1CC(=O)NNC(=S)Nc1ccc(Cl)cc1 | inactive | 
38 | Cn1c(Cc2cccs2)nnc1SC/C=C/c1ccccc1 |  | inconclusive: -1.77% [inhibitor]
39 | CCCCN1CC(=O)N2[C@H](c3ccc(Cl)cc3)[C@@H]3C(=O)N(CC)C(=O)[C@@H]3[C@]2(C)C1=O | inactive | 
40 | O=C(Nc1nc2ccc(F)cc2s1)C1CCCO1 (stereo not drawn) | inactive | 
41 | COc1cc2c(cc1OC)CN(Cc1cc(=O)n3c(-c4ccccc4)csc3n1)CC2 | inconclusive [inhibitor, single point] | 
42 | Cc1cccc(NC(=O)CCCn2cc([N+](=O)[O-])cn2)n1 | inactive | 
43 | Cc1ccc(S(=O)(=O)N2CCCC(C(=O)NCc3ccco3)C2)cc1Cl (stereo not drawn) | inconclusive [inhibitor, single point] | 
44 | CC(=O)C1C(c2ccccc2)c2c(noc2C)CC1(C)O (stereo not drawn) | inactive | 
45 | O=C(Nc1ccc(N2CCOCC2)c(Cl)c1)c1ccc2c(c1)OCCO2 | inconclusive [inhibitor, single point] | 
46 | COc1ccc(C(=O)NCC(c2cccs2)N2CCOCC2)cc1OC (stereo not drawn) | inactive | 
47 | Cc1ccc(NC(=O)CN(C)S(=O)(=O)c2ccc3c(c2)n(C)c(=O)c(=O)n3C)c(C)c1 | active: 18.4 µM | 
48 | O=C1C(NS(=O)(=O)c2cccs2)=C(N2CCN(Cc3ccccc3)CC2)C(=O)c2ccccc21 | inconclusive [inhibitor, single point] | 
